# Measurements reported in the supplement of paper PMC9446081.
# Among all 39,000 compounds or so, about 220 (0.56%) showed activity. The list shows a part of the results.
# System: Escherichia coli K-12 BW25113
# Assay: relative growth (OD600 normalised to plate interquartile mean) (fraction); higher = less growth inhibition, active = 0.2 or less
# Conditions: 50 µM; LB; incubation time: overnight (16-24 h)
# 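Further: static incubation at 37 °C against the wild-type strain, values averaged over two biological replicates.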
row,SMILES,relative growth
1,CN1CCN(C2=Nc3cc(Cl)ccc3Nc3ccccc32)CC1,inactive: 1.07
2,Cc1noc(C)c1S(=O)(=O)Nc1ccc2c(c1)C(=O)N([C@H](C)CO)C[C@H](C)[C@H](CN(C)C)OCCCC[C@@H](C)O2,inactive: 0.981
3,Nc1nc(=O)[nH]cc1NC(=O)c1ccccc1,inactive: 0.917
4,C[C@H]1CCCCO[C@H](CN(C)Cc2ccncc2)[C@@H](C)CN([C@@H](C)CO)C(=O)c2cc(NC(=O)Nc3ccccc3)ccc2O1,inactive: 0.988
5,C[C@H]1CN([C@@H](C)CO)S(=O)(=O)c2ccc(C#Cc3ccccc3)cc2O[C@H]1CN(C)C(=O)Cc1ccccn1,inactive: 0.994
6,C[C@H](CO)N1C[C@H](C)[C@H](CN(C)S(=O)(=O)c2ccccc2)Oc2ccc(NC(=O)CCN3CCOCC3)cc2CC1=O,inactive: 1.02
7,C[C@@H]1CN([C@@H](C)CO)C(=O)c2cc(NC(=O)Cn3cnnn3)ccc2O[C@H]1CN(C)Cc1ccc(C(=O)Nc2ccccc2N)cc1,inactive: 0.993
8,CC(C)NC(=O)Nc1ccc2c(c1)C(=O)N([C@H](C)CO)C[C@H](C)[C@H](CN(C)C(=O)Nc1ccc(C(F)(F)F)cc1)OCCCC[C@@H](C)O2,inactive: 1.02
9,C[C@H]1CN([C@@H](C)CO)C(=O)c2cc(NC(=O)c3ccncc3)ccc2O[C@@H]1CN(C)Cc1ccc(C(=O)O)cc1,inactive: 0.992
10,COc1ccc(cc1)CN1C[C@]2(CCN(CC2)S(=O)(=O)c2cn(cn2)C)c2c([nH]c3cc(ccc23)OC)[C@H]1CO,inactive: 1.02
11,C[C@@H]1CCCCO[C@@H](CN(C)C(=O)CCC(F)(F)F)[C@H](C)CN([C@H](C)CO)C(=O)c2cc(NS(=O)(=O)c3cccs3)ccc2O1,inactive: 0.951
12,C[C@@H]1CN([C@@H](C)CO)C(=O)c2cc(NC(=O)CCCCCC(=O)Nc3ccccc3N)ccc2O[C@H]1CN(C)S(=O)(=O)c1cn(C)cn1,inactive: 0.999
13,O=C(N[C@@H](c1ccccc1)c1ccc2ccccc2n1)C1CCN(CCOc2ccc(Cl)cc2)CC1,inactive: 0.976
14,C[C@@H]1CCCCO[C@@H](CN(C)Cc2ccc(C(F)(F)F)cc2)[C@H](C)CN([C@H](C)CO)C(=O)c2cc(NC(=O)c3ccncc3)ccc2O1,inactive: 0.982
15,C[C@@H]1CN([C@H](C)CO)C(=O)c2cccc(NC(=O)Nc3ccc4c(c3)OCO4)c2O[C@H]1CN(C)Cc1ccc(Oc2ccccc2)cc1,inactive: 1.01
16,OC[C@@H]1CC[C@@H]2O[C@H](CCc3ccc(C#Cc4ccccc4)cc3)[C@@H](n3cc(-c4ccccc4)nn3)C[C@@H]2O1,inactive: 1.02
17,C[C@H](CO)N1C[C@H](C)[C@H](CN(C)C(=O)N[C@H](C)c2ccccc2)OCc2ccccc2-c2c(n(C)c3ccccc23)C1=O,inactive: 0.978
18,C[C@H]1CN([C@@H](C)CO)C(=O)c2cccc(NC(=O)Nc3ccccc3)c2O[C@@H]1CN(C)C(=O)Nc1cccc2ccccc12,inactive: 1.01
19,CCCCCCCCCCCCCCCC(=O)NCCO,inactive: 1.07
20,OCCC12CC3CC(CC(C3)C1)C2,inactive: 1.01
21,C[C@@H]1CN([C@H](C)CO)C(=O)c2cccc(NC(=O)C3CCOCC3)c2O[C@@H]1CN(C)Cc1ccc2c(c1)OCO2,inactive: 0.977
22,C[C@@H]1CN([C@H](C)CO)C(=O)c2cccc(NC(=O)Nc3cccc4ccccc34)c2O[C@H]1CN(C)C(=O)Nc1ccc(F)cc1,inactive: 0.999

row,SMILES,relative growth
1,C[C@H]1CN([C@@H](C)CO)C(=O)c2cc(NS(=O)(=O)c3cn(C)cn3)ccc2O[C@@H]1CN(C)S(=O)(=O)c1ccc(F)cc1,inactive: 1.02
2,CN1CCc2nc(C(=O)NC3CC(C(=O)N(C)C)CCC3NC(=O)C(=O)Nc3ccc(Cl)cn3)sc2C1.Cc1ccc(S(=O)(=O)O)cc1.O (centres undefined),inactive: 1.01
3,C[C@H]1CN([C@@H](C)CO)C(=O)c2cc(NC(=O)Nc3cccc4ccccc34)ccc2O[C@@H]1CN(C)S(=O)(=O)c1cccs1,inactive: 1
4,COc1ccc(S(=O)(=O)Nc2ccc3c(c2)CC(=O)N([C@@H](C)CO)C[C@H](C)[C@@H](CN(C)S(=O)(=O)c2cccs2)O3)cc1,inactive: 0.989
5,C[C@H]1CN([C@@H](C)CO)C(=O)c2cc(NC(=O)C3CC3)ccc2O[C@@H]1CN(C)S(=O)(=O)c1ccc(Cl)cc1,inactive: 0.989
6,O=C(C[C@H]1C=C[C@@H](NC(=O)CN2CCOCC2)[C@H](CO)O1)NC1CCCCC1,inactive: 1.01
7,Cc1c(C(=O)OCC(=O)N(CC(C)C)c2c(N)n(Cc3ccccc3)c(=O)[nH]c2=O)oc2ccccc12,inactive: 1.02
8,COc1ccc(S(=O)(=O)Nc2ccc3c(c2)C(=O)N([C@H](C)CO)C[C@H](C)[C@H](CN(C)S(=O)(=O)c2cn(C)cn2)OCCCC[C@@H](C)O3)cc1,inactive: 0.991
9,CC(=O)OCC1=C[C@@H]2OC(=O)C3=CO[C@@H](O[C@H]4O[C@H](CO)[C@@H](O)[C@H](O)[C@H]4O)[C@H]1[C@@H]32,inactive: 1.01
10,CCCNC(=O)N(C)C[C@@H]1Oc2cc(C#Cc3ccccn3)ccc2S(=O)(=O)N([C@@H](C)CO)C[C@H]1C,inactive: 1.02
11,CSc1scc(-c2cc(Cl)cc(Cl)c2)c1C#N,inactive: 1.01
12,Cc1ccc(S(=O)(=O)N(C)C[C@@H]2Oc3ccc(NS(=O)(=O)c4cccs4)cc3C(=O)N([C@H](C)CO)C[C@H]2C)cc1,inactive: 1.01
13,CO[C@H]1/C=C/C[C@H](C)[C@@H](C)S(=O)(=O)NC(=O)c2ccc3c(c2)N(C[C@@H]2CC[C@H]21)C[C@@]1(CCCc2cc(Cl)ccc21)CO3,inactive: 0.964
14,NC(=O)c1ncn(C2OC(CO)C(O)C2O)n1 (centres undefined),inactive: 0.645
15,CC(C)C#Cc1ccc2c(c1)O[C@H](CN(C)C(=O)c1cccc(F)c1)[C@H](C)CN([C@H](C)CO)S2(=O)=O,inactive: 0.968
16,C[C@H](CO)N1C[C@H](C)[C@H](CN(C)C(=O)Nc2ccc(C(F)(F)F)cc2)OCCCC[C@H](C)Oc2ccc(NS(=O)(=O)c3cn(C)cn3)cc2C1=O,inactive: 0.933
17,Nc1cc([N+](=O)[O-])ccc1C(=O)O,inactive: 1.01
18,C[C@H](CO)N1C[C@H](C)[C@@H](CN(C)S(=O)(=O)c2ccc(Cl)cc2)Oc2c(NC(=O)C3CCOCC3)cccc2C1=O,inactive: 0.977
19,Cc1noc(C)c1S(=O)(=O)Nc1cccc2c1O[C@H](CN(C)C(=O)Nc1ccccc1)[C@H](C)CN([C@@H](C)CO)C2=O,inactive: 0.994
20,N[C@@H](Cc1ccc(O)c(O)c1)C(=O)O,inactive: 0.862
21,Cc1ccc(S(=O)(=O)Nc2ccc3c(c2)C(=O)N([C@H](C)CO)C[C@@H](C)[C@@H](CN(C)C(=O)CCC(F)(F)F)OCCCC[C@H](C)O3)cc1,inactive: 0.982
22,C[C@@H]1CN([C@H](C)CO)C(=O)Cc2cc(NS(C)(=O)=O)ccc2O[C@H]1CN(C)Cc1ccc(C(F)(F)F)cc1,inactive: 0.965

row,SMILES,relative growth
1,C[C@H](CO)N1C[C@H](C)[C@H](CN(C)S(=O)(=O)c2ccccc2)Oc2ncc(-c3cccc(F)c3)cc2C1=O,inactive: 0.979
2,CCCCCC(CC(=O)O)C(=O)O (centres undefined),inactive: 0.973
3,C=CCOC[C@H](O)Cn1c(N2CCOCC2)nc2c1c(=O)n(C)c(=O)n2C,inactive: 0.988
4,C[C@@H]1CN([C@@H](C)CO)C(=O)c2cc(C#C[C@@H](C)O)cnc2O[C@@H]1CN(C)Cc1cncnc1,inactive: 0.982
5,C[C@H](CO)N1C[C@H](C)[C@H](CN(C)C(=O)Nc2cccc3ccccc23)Oc2ccc(NC(=O)Nc3ccc(F)cc3)cc2C1=O,inactive: 1.03
6,C[C@H]1CCCCO[C@@H](CN(C)C(=O)C2CCCCC2)[C@@H](C)CN([C@@H](C)CO)C(=O)c2cc(NC(=O)Nc3ccc(C(F)(F)F)cc3)ccc2O1,inactive: 1.11
7,O=c1c2ccccc2oc2ccccc12,inactive: 1.03
8,COCC(=O)N(C)C[C@@H]1Oc2cc(C#Cc3cccnc3)ccc2S(=O)(=O)N([C@@H](C)CO)C[C@@H]1C,inactive: 1.02
9,Cc1ccc(S(=O)(=O)Nc2ccc3c(c2)C(=O)N([C@@H](C)CO)C[C@H](C)[C@H](CN(C)C(=O)Nc2ccc(C(F)(F)F)cc2)OCCCC[C@H](C)O3)cc1,inactive: 1.01
10,COc1ccc2c3c([nH]c2c1)[C@@H](CO)N(C[C@]13CCN(CC1)C(=O)Nc1cccc(c1)F)C(=O)c1ccccc1,inactive: 0.982
11,C[C@H](CO)N1C[C@H](C)[C@H](CN(C)S(C)(=O)=O)Oc2c(NC(=O)Nc3ccc4c(c3)OCO4)cccc2C1=O,inactive: 0.992
12,O=C(C[C@@H]1C=C[C@H](NC(=O)c2ccc(F)cc2)[C@@H](CO)O1)NCc1ccncn1,inactive: 0.994
13,N[C@H](c1ccc2c(c1)OCCO2)c1ccco1,inactive: 1.02
14,CS(=O)(=O)[O-].C[n+]1ccccc1C=NO,inactive: 0.991
15,CO[C@H]1CN(S(=O)(=O)c2cn(C)cn2)[C@H]2COC[C@@H]12,inactive: 0.983
16,COc1ccc(C(=O)NC(CO)(CO)CO)cc1OC,inactive: 0.908
17,O=C1N(Cc2ccccc2)Cc2ccccc2[C@H]2OC(c3ccc(OCCCO)cc3)=N[C@@]12Cc1ccccc1,inactive: 1.02
18,Cn1cnc(S(=O)(=O)N[C@@H]2C=C[C@H](CC(=O)Nc3ccccc3)O[C@@H]2CO)c1,inactive: 1.02
19,Nc1ccc(Sc2ccc3ccccc3c2Cl)c(Cl)c1,inactive: 0.932
20,COc1ccc(C#Cc2ccc3c(c2)O[C@@H](CN(C)C(=O)c2ccccn2)[C@H](C)CN([C@H](C)CO)S3(=O)=O)cc1,inactive: 1
